# Assay results from PubChem BioAssay AID686978 (National Center for Advancing Translational Sciences (NCATS), 2013).
# About 64,000 (15%) of roughly 420,000 compounds were called active. The inconclusive results got no clear call from the source; some entries with a clear call stand among them for comparison. Calls come from the whole dose curve; as a rule, active = well fitted inhibition curve with a large enough effect; inconclusive = small, poorly fitted or top-dose-only effect; inactive = flat fitted curve, though single readings scatter. No potency is given beside an inconclusive call; the fits are too rough.
# Test: qHTS for Inhibitors of human tyrosyl-DNA phosphodiesterase 1 (TDP1): qHTS in cells in absence of CPT; note: nearly all actives have a fitted effect of over 55% in size
# Conditions: DT40 Tdp1-/- hTDP1 cells, no CPT, ATP luminescence, 48 h; activity change, negative = growth inhibition: at 46.2 µM (top of the series) unless noted
# How it was run: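 Stably hTDP1-transfected Tdp1-null chicken DT40 cells were treated with library compounds minus camptothecin and grown for at least 48 hr at 37 °C, after which cellular ATP was quantified by luminescence.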
# % is set by controls: 0 for no effect and ±100 for the full control effect; potency is the fitted concentration of half-maximal effect; tags give direction and shape of the fitted curve.
Structure (SMILES),Potency,"activity change, negative = growth inhibition"
Cc1ccc(/C=N/NC(=O)C(C)Oc2cccc3ccccc23)o1 (stereo not drawn),"inconclusive [inhibitor, single point]",
O=C(Nc1ccc(-n2nncc2-c2ccco2)cc1)c1ccc(F)cc1,"inconclusive [inhibitor, single point]",
O=c1c2ccccc2[nH]c(=S)n1CCN1CCN(Cc2ccccc2)CC1,inactive,
N#CC1=C(N)NC(SCC(=O)Nc2ccccc2)=C(C#N)C12CCCC2,"inconclusive [inhibitor, partial curve, poor fit]",
CC(=O)Nc1ccc(NC(=O)CSc2nc3c([nH]c4ccccc43)c(=O)n2-c2ccccc2F)cc1,"inconclusive [inhibitor, single point]",
COc1ccc2nc(SCC(=O)N(C)C3CCCCC3)c(C#N)cc2c1,"inconclusive [inhibitor, single point]",
CCc1ccc(OCc2n[nH]c(=S)n2Cc2ccccc2)cc1,"inconclusive [inhibitor, single point]",
O=C(Nc1ccc(Br)cc1)C(c1ccccc1)c1ccccc1,"inconclusive [inhibitor, single point]",
O=C(/C=C/c1ccccc1[N+](=O)[O-])OCC(=O)N1CCCC1,inactive,
COC(=O)c1sc(N)c(C(=O)OC)c1COC(=O)C1CC(=O)N(Cc2ccco2)C1 (stereo not drawn),inactive,
Cc1ccc2c(CNCCc3ccco3)c(C(=O)O)n(Cc3ccc(F)cc3)c2c1,active: 25.9 µM,
FC(F)(F)c1nnc(Nc2ccc(Cl)cc2)s1,"inconclusive [inhibitor, single point]",
O=C(N/N=C/c1ccco1)c1ccc(N2CCCC2=O)cc1,"inconclusive [inhibitor, single point]",
COc1ccc(C(=O)NCc2nnc(SCC(=O)Nc3nc4ccc(C)cc4s3)o2)cc1OC,active: 2.31 µM,
CC1(C)CC2CC(C)(CN2/C=C2/CCCCC2=O)C1 (stereo not drawn),"inconclusive [inhibitor, partial curve]",
CCOc1ccc(CN(CCc2ccc3c(c2)OCO3)Cc2cc(OC)cc(OC)c2)cc1,"inconclusive [inhibitor, partial curve, poor fit]",
Fc1cccc(F)c1/C=N/NC(=S)Nc1cccnc1,inactive,
CCOC(=O)C1=C(C)Nc2sc(C(=O)c3ccc(F)cc3)c(N)c2C1c1ccc(C(=O)OC)cc1 (stereo not drawn),active: 11.6 µM,
CCC1COCCS(=O)(=O)N1Cc1ccc(F)cc1 (stereo not drawn),"inconclusive [inhibitor, single point]",
Cn1c(=O)[nH]c(=O)c2c1nc(Br)n2Cc1ccc(Cl)cc1,"inconclusive [inhibitor, single point]",
CC(=O)N1c2ccc(S(=O)(=O)NCCC(=O)NC3CCCC(C)C3C)cc2CC1C (stereo not drawn),"inconclusive [inhibitor, single point]",
O=C1NC(Cc2ccc(O)cc2)c2nc3ccc(F)cc3c(=O)n2-c2cc(Cl)ccc21 (stereo not drawn),inactive,
Cc1cc(=O)[nH]c2nnc(SCc3cccc(C(F)(F)F)c3)n12,"inconclusive [inhibitor, single point]",

Structure (SMILES),Potency,"activity change, negative = growth inhibition"
CC1C(=O)N(Cc2cn(CCC3OCCO3)nn2)CCS(=O)(=O)N1Cc1ccc(-c2cccc(N(C)C)c2)cc1 (stereo not drawn),active: 16.4 µM,
Cc1ccccc1CCNC(=O)C1CC(O)CN1C(=O)Nc1ccccc1 (stereo not drawn),,inconclusive: -26% [inhibitor]
CC(C)CC(=O)NN(C)c1nc(-c2ccccc2)nnc1C(F)(F)F,"inconclusive [inhibitor, partial curve, poor fit]",
Cn1c(N)c(C(=O)COC(=O)C2(c3ccc(Cl)cc3)CCCC2)c(=O)n(C)c1=O,active: 11.6 µM,
CCN1CCC(N(Cc2ccc(F)cc2)C(=O)Nc2ccc(C)c(F)c2)CC1,"inconclusive [inhibitor, single point]",
C[C@@H]1O[C@H](CCc2cccc(Cl)c2)CC2=C1C(=O)OC(C)(C)O2,active: 2.91 µM,
COc1ccccc1NC(=O)CSc1nnc(Cc2ccccc2)o1,inactive,
COc1cc(Cl)c(NC(=O)CN2C(=O)c3cccnc3Sc3ccccc32)c(OC)c1,"inconclusive [inhibitor, single point]",
COc1ccc(C)cc1S(=O)(=O)NCCC1=CCCCC1,"inconclusive [inhibitor, partial curve]",
COc1ccccc1CCNC(=O)c1csc2c1CCCC2,"inconclusive [inhibitor, single point]",
Cc1cccc2nc(-c3ccc(Cl)s3)c(Nc3ccc4c(c3)OCCO4)n12,"inconclusive [inhibitor, single point]",
COc1ccc(NC(=O)C(Cc2ccccc2)NS(=O)(=O)c2ccc3c(c2)oc(=O)n3C)c(OC)c1 (stereo not drawn),inactive,
O=[N+]([O-])c1ccccc1OCCCOc1cccc2cccnc12,"inconclusive [inhibitor, single point]",
COc1ccccc1/C=C/C=N/N1CCN(Cc2cccc3ccccc23)CC1,"inconclusive [inhibitor, partial curve]",
COc1ccc(Cl)c2sc(N(CCN(C)C)C(=O)CCS(=O)(=O)c3ccc(C)cc3)nc12,"inconclusive [inhibitor, single point]",
CNS(=O)(=O)c1cc(NC(=O)c2cnc(SC)n2-c2ccccc2)ccc1C,active: 14.6 µM,
CCOc1cc(/C=N/NC(=O)c2cc(-c3ccccc3)nc3ccccc23)ccc1O,"inconclusive [inhibitor, full curve]",
CCC1(C2CCN(Cc3ccccc3Cl)CC2)NC(=O)N(CC2COc3ccccc3O2)C1=O (stereo not drawn),"inconclusive [inhibitor, single point]",
N#C/C(=C(/O)c1ccc(F)cc1)c1nc2ccccc2s1,active: 23.1 µM,
COc1ccc(/C=C(\C#N)C(=O)NCc2cccnc2)cc1OC,"inconclusive [inhibitor, partial curve]",
CCN(CC(=O)Nc1ccccc1OC)C(=O)c1ccccc1Sc1ccccc1C#N,"inconclusive [inhibitor, single point]",
CCc1nc2ccccc2c(=O)n1/N=C/c1ccc(Cl)cc1,active: 16.4 µM,
Cc1ccc(C)c(NC(=O)CSc2cn(CC(=O)N3CCCCC3)c3ccccc23)c1,"inconclusive [inhibitor, single point]",

Structure (SMILES),Potency,"activity change, negative = growth inhibition"
COc1ccc(OC(=O)c2cc(-c3ccc4c(c3)OCCO4)on2)cc1,"inconclusive [inhibitor, single point]",
Cc1c(CC(=O)N2CCN(C(=O)C3COc4ccccc4O3)CC2)c(=O)oc2c(C)c(O)ccc12 (stereo not drawn),"inconclusive [inhibitor, single point]",
Cc1nc2ccc(S(=O)(=O)NCC(=O)NCc3ccc(Cl)cc3)cc2s1,"inconclusive [inhibitor, partial curve]",
COc1ccccc1N1CCN(c2ncc3c(n2)CCN(Cc2ccccc2C)C3)CC1,inactive,
Cc1ccc(OCC(=O)OCc2cc(=O)n3ccsc3n2)cc1C,"inconclusive [inhibitor, single point]",
Cc1nn(-c2ccccc2)c(-n2cccc2)c1C(=O)NCCCN1CCN(c2ccccc2F)CC1,active: 18.4 µM,
CN(C)[C@H]1N(C(=O)c2ccc(Br)cc2)N=C2c3ccccc3S(=O)(=O)N21,inactive,
CCN(CC)S(=O)(=O)c1cc(NC(=O)CNc2cccc(S(=O)(=O)N3CCCC3)c2)ccc1C,active: 2.59 µM,
CCSc1nc(-c2ccc(OC)cc2)cc(-c2ccc(OC)cc2)c1C#N,"inconclusive [inhibitor, partial curve]",
CCCC(=O)N=c1sc2cccc(F)c2n1C,inactive,
C/C(=N\NC(=O)CN1CCN(Cc2ccc(C)cc2)CC1)c1ccncc1,inactive,
CCOC(=O)CSc1nnc(SCCN2C(=O)c3ccccc3C2=O)s1,inactive,
Cc1cc(OCC(=O)N(C)c2c(N)n(Cc3ccccc3)c(=O)[nH]c2=O)c(C(C)C)cc1Cl,"inconclusive [inhibitor, single point]",
CNC(=O)Nc1ccc(C2SCCS2)cc1,inactive,
COc1ccc(-n2nc(C(=O)Nc3cc(OC)c(OC)c(OC)c3)c3ccccc3c2=O)c(OC)c1,"inconclusive [inhibitor, single point]",
O=C(CSC1=NCCN1)C1COc2ccccc2O1 (stereo not drawn),"inconclusive [inhibitor, single point]",
CCCCn1c(N)c(N(CCOC)C(=O)CCS(=O)(=O)c2ccc(C)cc2)c(=O)[nH]c1=O,inactive,
COc1ccccc1CNc1nc(-c2cccc(NS(C)(=O)=O)c2)nc2ccccc12,"inconclusive [inhibitor, single point]",
O=C(CSc1ccc(Br)cc1)NCC(c1ccco1)N1CCCCC1 (stereo not drawn),"inconclusive [inhibitor, single point]",
CN(C)CCNC(=O)c1ccc(Cn2c(=O)c3cccn3c3cccnc32)cc1,"inconclusive [inhibitor, single point]",
CCc1nc2ccc(C(=O)NCCNC(C)=O)cn2c1N(CC)Cc1cccc(Br)c1,"inconclusive [inhibitor, single point]",
Cc1ccc(NC(=O)c2ccc(S(=O)(=O)N3CCCCCC3)cc2)nc1,"inconclusive [inhibitor, single point]",
